The results in this text go back to PubChem BioAssay AID485344 (National Center for Advancing Translational Sciences (NCATS), 2010).

Among all 340,000 compounds or so, about 6,900 (2%) were called active. No stated cut-off is given here; in the data, active means inhibition above about 30%; inactive means below that, where a call was filed. The entries are a selection whose mix differs from that of the whole data set. Where no call is shown, the source filed none.

In this test the target is D(2) dopamine receptor (Homo sapiens) (UniProt P14416). The experiment in a line: HTS Assay for Allosteric Antagonists of the Human D2 Dopamine Receptor: Primary Screen for Antagonists. Further: 0% is about no effect. The settings on record: HEK293 TREx D2 cells, calcium flux, dopamine EC80; at 10 µM; stronger effect = higher value. The gist of the method: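 Dopamine at EC80 is the agonist stimulus; test compounds precede it by 180 s. Calcium flux read kinetically in a force-coupled, inducible HEK293 T-REx D2 cell line.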
UniProt P14416, sequence (P14416 whole entry, looked up): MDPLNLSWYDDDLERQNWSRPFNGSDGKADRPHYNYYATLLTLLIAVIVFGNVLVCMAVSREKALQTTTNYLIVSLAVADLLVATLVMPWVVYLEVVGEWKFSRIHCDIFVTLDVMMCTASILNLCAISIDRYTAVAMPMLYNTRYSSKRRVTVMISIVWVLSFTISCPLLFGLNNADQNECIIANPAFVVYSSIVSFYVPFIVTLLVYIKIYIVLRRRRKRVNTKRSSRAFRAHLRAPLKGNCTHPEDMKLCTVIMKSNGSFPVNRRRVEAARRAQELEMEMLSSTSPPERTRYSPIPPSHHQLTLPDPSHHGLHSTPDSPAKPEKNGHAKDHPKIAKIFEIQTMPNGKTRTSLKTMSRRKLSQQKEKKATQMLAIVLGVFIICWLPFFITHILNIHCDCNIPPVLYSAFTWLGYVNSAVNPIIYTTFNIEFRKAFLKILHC
(In general: A change in cytosolic calcium serves as a functional read-out for many receptors and channels.)
In general, inhibition refers to the drop in the measured response relative to a control, in per cent. `O=C(C1COc2ccccc2O1)N(Cc1cccnc1)c1nc2c(Cl)cccc2s1` (stereo unspecified): the inhibition is 9.98%.
For the compound `COc1ccc(OC)c(NC(=O)CSc2ncc3c(n2)-c2ccccc2N(C)S3(=O)=O)c1`, the inhibition is -7.4%.
As for `CCCNC(=O)c1ccc(-c2nc(CS(=O)(=O)c3ccc(C)cc3)c(C)o2)cc1`, the inhibition is 0.0058%.
With `CCOC(=O)N1CCN(Cc2nc3cc(NC(=O)C(C)C)ccc3n2C(C)C)CC1`, the inhibition is -10.6%.
The result for `c1ccc(CCCCNCC2COc3ccccc3O2)cc1` (stereo unspecified) reads active: 95.9%; that for `O=C(c1ccc(F)cc1)N1CCC(c2nc(-c3ccc(S(=O)(=O)N4CCCC4)cc3)no2)CC1`, 1.59%.
Next, `COc1ccccc1N(CC(=O)Nc1ccc2c(c1)OCO2)S(=O)(=O)c1ccc(C)cc1`: -0.187%; `O=C(Cn1cnc2onc(-c3ccc(F)cc3)c2c1=O)Nc1ccc(F)c(Cl)c1`: 0.221%.
As to `O=C(CN1c2ccccc2S(=O)(=O)c2ccccc21)Nc1ccccc1Cl`, the inhibition turned out to be 5.39%.
As to `CCOc1ccc(S(=O)(=O)c2cn(Cc3ccccc3C)c3ccc(OC)cc3c2=O)cc1`, the inhibition was -5.85%.
Take `CCC(=O)NC1CC2CCCC(C1)N2Cc1ccc(C)cc1` (stereo unspecified): the inhibition is active: 93.4%.
Next, `CCc1nn(CC(=O)NCCCN2CCN(CC)CC2)c(=O)c2cc3occc3n12`: -4.21%; `CCCOc1ccc(-c2nonc2NC(=O)c2oc3ccc(Cl)cc3c2C)cc1OCCC`: 5.52%; `COc1ccc(NC(=O)c2ccc(OCC3CCCO3)cc2)cc1Cl` (stereo unspecified): active: 47.4%.
With `O=C(/C=C/c1ccc(N2CCC(c3ccccc3)=N2)cc1)c1ccccc1`, the inhibition is active: 32.7%.
With `Cc1nn(C)c2c1c(C(F)(F)F)cc(=O)n2C(C)C(=O)NCCc1ccccc1` (stereo unspecified), the inhibition came to 1.05%.
Consider `O=C(Nc1nc2n(n1)C(c1ccc(Cl)cc1)C=C(c1ccccc1)N2)c1ccco1` (stereo unspecified), for which the inhibition came out at 4.04%.
On to `COc1ccc(CCNC(c2ccc(F)cc2)c2nnc(-c3ccccc3Cl)o2)cc1OC` (stereo unspecified), for which the inhibition was 4.02%.
As for `COc1ccc2c(Sc3ccc(C)cc3)c(C(=O)NCCc3ccccc3)[nH]c2c1`, the inhibition is -5.64%.
`COc1ccc(-c2c3c(=O)n(C)c(=O)n(C)c3c3n2-c2ccccc2NC3c2ccc(O)cc2O)cc1` (stereo unspecified): the inhibition was -11%.
Turning to `Cc1cc(OCCCn2c(CCNC(=O)C3CCCCC3)nc3ccccc32)ccc1Cl`, the inhibition came out at 12.7%.
Next, `COc1ccc(N(CC(=O)Nc2cccc(C(C)=O)c2)S(=O)(=O)c2ccccc2)c(OC)c1`: 10.8%.
On to `OCc1cnc(SCc2ccc(F)cc2)n1Cc1ccc(F)cc1`, for which the inhibition is 16.8%.
For the compound `O=C(CSc1nc(-c2cccs2)nc2cc(=O)[nH]n12)Nc1cccc(C(F)(F)F)c1`, the inhibition was 2.52%.
For the compound `CCOCc1c(C(=O)N2CCN(CC(=O)Nc3ccc(F)cc3)CC2)oc2ccccc12`, the inhibition is active: 71.7%.
Next, `O=C(CSc1n[nH]c(-c2ccccc2)n1)N1CCN(c2ccccc2F)CC1`: 3.78%.
